Test results taken from paper PMC6919601, “Identification of Plasmodium dipeptidyl aminopeptidase allosteric inhibitors by high throughput screening” (PLoS ONE, 2019).
Where “and” joins values, the source holds several entries; their conditions need not be identical. Equal values may be shown once. The campaign covered roughly 110,000 compounds. About 230 (0.21%) showed an effect of 50% or more. This is one part of the list.

Biological target: DPAP1 (Plasmodium falciparum, UniProt Q8IIJ9)
Experiment: primary screen, percent inhibition; read by cleavage of a fluorogenic dipeptide substrate; higher = more effect of the substance
Set-up: species or system P. falciparum D10 trophozoite lysates; single well
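Further: 30 min substrate incubation versus DMSO and 10 µM JCP410 controls.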

Sequence of DPAP1 (Q8IIJ9 whole entry, looked up): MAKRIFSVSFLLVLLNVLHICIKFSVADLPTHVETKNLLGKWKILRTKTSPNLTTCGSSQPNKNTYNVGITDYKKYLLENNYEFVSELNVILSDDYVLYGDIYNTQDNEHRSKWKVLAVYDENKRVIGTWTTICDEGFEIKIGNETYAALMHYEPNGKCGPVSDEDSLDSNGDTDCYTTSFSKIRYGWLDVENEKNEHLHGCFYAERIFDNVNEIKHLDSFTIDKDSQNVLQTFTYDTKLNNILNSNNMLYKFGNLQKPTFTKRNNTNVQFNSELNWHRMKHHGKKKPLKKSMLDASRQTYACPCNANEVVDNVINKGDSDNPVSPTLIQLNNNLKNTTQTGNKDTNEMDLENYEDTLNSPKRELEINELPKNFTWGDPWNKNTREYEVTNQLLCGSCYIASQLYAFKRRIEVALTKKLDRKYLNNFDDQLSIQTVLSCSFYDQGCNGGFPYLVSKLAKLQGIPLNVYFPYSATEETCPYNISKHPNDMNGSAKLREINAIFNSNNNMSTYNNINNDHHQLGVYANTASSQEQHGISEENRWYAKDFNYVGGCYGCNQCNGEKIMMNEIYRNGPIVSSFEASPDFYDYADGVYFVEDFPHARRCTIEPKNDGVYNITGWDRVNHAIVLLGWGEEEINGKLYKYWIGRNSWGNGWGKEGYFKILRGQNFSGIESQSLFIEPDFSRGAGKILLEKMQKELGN

Row | Compound | % Inhibition @ 10 uM
1 | N#CC1=C(N)OC2=C(C(=O)CC(c3ccccc3)C2)C12C(=O)Nc1ccccc12 (stereo not shown) | 4.12%
2 | CC1(C)CC(NC(=O)c2cncc(Br)c2)CC(C)(C)N1 | -1.52%
3 | COc1ccc(Cn2c(C(=O)O)c(CNCCCc3ccccc3)c3ccccc32)cc1 | 0.616%
4 | Cc1ccc(NC(=O)CCN2C(=O)c3ccccc3C2=O)cc1[N+](=O)[O-] | -14.3%
5 | CC(C)CC(NC(=O)C1CCC(C)CC1)C(=O)NCc1cccnc1 (stereo not shown) | 4.02%
6 | CC(C)(C)C(=O)/C=C(/c1ccccc1)N1CCCCC1 | -2.47%
7 | Cc1sc2ncnc(N3CCC(C)CC3)c2c1S(=O)(=O)N1CCOCC1 | -5.17%
8 | CC(C)Oc1ccc(C(=O)C2=C(O)C(=O)N(Cc3cccnc3)C2c2ccco2)cc1 (stereo not shown) | -1.35%
9 | COc1ccc(-c2cc(C)no2)cc1S(=O)(=O)NCc1ccc(C)o1 | -1.95%
10 | COc1cc(C(CC(=O)Nc2ccccn2)N2Cc3ccccc3C2=O)cc(OC)c1OC (stereo not shown) | -4.78%
11 | CN1CCN(Cc2ccccc2Sc2ccccc2)CC1 | -0.334%
12 | CC(=O)N(C(C)=O)c1ncc2c([nH]c3ccccc32)c1C#N | -1.33%
13 | CCN(CC)C(=O)c1sc(NC(=O)c2ccc(C)cc2)c(C#N)c1C | -2.53%
14 | COc1ccc(-n2cc(Cl)nc(NCCc3c[nH]c4ccccc34)c2=O)cc1 | -3.77%
15 | COc1cc(C2c3c(-c4c(C)cc(C)cc4O)n[nH]c3C(=O)N2CCO)cc(Br)c1O (stereo not shown) | 6.34%
16 | CCn1cc(CCC(=O)NC2CCCC(C)C2C)c2ccccc21 (stereo not shown) | 0.581%
17 | Cc1cc(C(F)(F)F)c2c(n1)sc1c(O)cc(O)nc12 | 3.39%
18 | Fc1cccc(F)c1-c1nc(-c2ccc(-n3cccc3)cc2)no1 | 5.76%
19 | C[C@@H](Cc1ccccc1)NC(=O)C(c1ccccc1)c1ccccc1 | 0.968%
20 | O=C(O)c1cc(NS(=O)(=O)c2cc(Cl)ccc2Cl)ccc1O | -4.39%
21 | O=C(CN1CCN(Cc2ccc3c(c2)OCO3)CC1)Nc1ccc(F)cc1 | -17%
22 | Cc1cc(NC(=O)CN2CCc3ccccc3C2)nc2c1c(=O)oc1ccccc12 | 1.49%

Row | Compound | % Inhibition @ 10 uM
23 | CCOc1ccc(NC(=O)C2=C(C)NC(=O)NC2c2ccc(Cl)cc2Cl)cc1 (stereo not shown) | 6.86%
24 | CCN(CC)S(=O)(=O)c1ccc(Cl)c(C(=O)OC)c1 | -1.62%
25 | CCCNC(=O)Cn1ncc2c(C)n(Cc3ccc(F)cc3)c(C)c2c1=O | 1.22%
26 | Fc1cccc(-n2c(S)nnc2CN2CCSCC2)c1 | 3.48%
27 | CN1CCc2oc3ccc(N)cc3c2C1 | 1.8%
28 | CC(C)NC(=O)c1cc(-c2cccs2)nc2ccccc12 | 0.0538%
29 | Nc1no[n+]([O-])c1C(=O)CSc1ncc(-c2ccccc2)nn1 | -0.0108%
30 | CCOC(=O)N1CCN(C(=O)Cn2ncc3c(=O)oc4ccccc4c32)CC1 | 2.39%
31 | COc1ccccc1CNC(=O)C1CCCN1c1nn2c(=O)cc(C)nc2s1 (stereo not shown) | 4.55%
32 | Cc1cc(C)nc(NS(=O)(=O)c2ccc(NS(=O)(=O)c3cc(Cl)ccc3Cl)cc2)n1 | -1.36%
33 | O=C(NCCc1nc2ccccc2n1CCc1ccccc1)c1ccco1 | 2.14%
34 | CCc1nc2ccc(C(=O)N3CCN(c4ccccn4)CC3)cc2nc1CC | -3.26%
35 | O=C(NCCc1ccc(Cl)cc1)c1cnn(-c2ccccc2)c1-n1cccc1 | -3.58%
36 | CCOC(=O)c1c(NC(=O)CNC(C)(C)C)sc2c1CCC2 | 3.01%
37 | Fc1ccc(CCNCc2ccc(Br)cc2)cc1 | 1.02%
38 | O=C(Nc1cccnc1Cl)C(O)(c1ccccc1)c1ccccc1 | 5.09%
39 | CCc1nc2ccc(C(=O)NCCc3ccc(S(N)(=O)=O)cc3)cc2nc1CC | 9.95%
40 | COc1cc(COc2ccc3c(C)c(CCC(=O)O)c(=O)oc3c2)cc(OC)c1OC | 0.147%
41 | CC1(C)CC(=O)C2=C(C1)N(c1ccc(Cl)cc1)C(N)=C(C#N)C2c1cccs1 (stereo not shown) | 4.07%
42 | COc1ccc(C2C(C#N)=C(N)Oc3cc(C)oc(=O)c32)cc1Br (stereo not shown) | -5.57%
43 | Cc1ccc(C(=O)NC(C(=O)O)C23CC4CC(CC(C4)C2)C3)cc1 (stereo not shown) | 2.51%
44 | Cc1cc(C)c(NC(=O)CCc2ccccc2)c(C)c1 | -5.62%

Row | Compound | % Inhibition @ 10 uM
45 | CCCSc1nnc(-c2ccccc2N)c(O)n1 | -1.37%
46 | O=C1c2ccccc2C(=O)N1c1cc(Cl)ccc1Cl | -5.13%
47 | O=C(O)CCn1c2ccccc2c2cnnc(O)c21 | 4.79%
48 | COc1cc(/C=C2\SC(=O)N(CC(=O)Nc3ccc(C)cc3)C2=O)c(Br)cc1O | -2.25%
49 | COc1cccc(C(=O)c2cc3ccc(O)cc3oc2=O)c1 | 2.12%
50 | CN1C(C(=O)NCCc2ccccc2)=CC(c2cccs2)=NS1(=O)=O | 3.92%
51 | CCCc1nnc2sc(NC(=O)C(C)C)nn12 | -5.99%
52 | CCCN1CCN(C(=O)C2CCCN(c3nnc(C)c4c(C)n(-c5ccccc5)nc34)C2)CC1 (stereo not shown) | 4.07%
53 | Oc1ncnc2c1sc1nc3c(c(-c4ccco4)c12)CCc1ccccc1-3 | 3.33%
54 | CCc1ccc(C2NC(=O)NC(C)=C2C(=O)OCC(C)C)cc1 (stereo not shown) | -4.18%
55 | CCOCCCNC(=O)CN1Cc2ccccc2C1=O | 3.12%
56 | Cc1ccccc1NC(=O)/C=C/c1ccc2c(c1)OCO2 | -9.84%
57 | CCc1nnc(NC(=O)C2=CCN(S(=O)(=O)c3ccccc3)CC2)s1 | -7.1%
58 | Cc1nc2c(c(C)c1C#N)C(=O)c1ccccc1-2 | 1.65%
59 | CCOC(=O)N1CCC(NC2CCN(Cc3ccccc3)CC2)CC1 | -5.44%
60 | COc1ccc(/C=C2\CCC/C(=C\c3ccc([N+](=O)[O-])cc3)C2=O)cc1 | -0.902%
61 | COc1ccc(Cl)cc1-n1nc(C)c2c1CC(c1ccccc1)CC2=O (stereo not shown) | -0.703%
62 | CNC(=S)N(Cc1ccccc1)Cc1ccccc1 | 2.03%
63 | COc1cccc(OCc2ccc(C(=O)Nc3cccc(F)c3)cc2)c1 | 2.64% and -5.07%
64 | COc1ccc(C2CC3=Nc4ccccc4NC(c4ccncc4)C3=C(O)C2)cc1OC (stereo not shown) | -6.34%
